# Laboratory results from paper PMC4242493.
# Some of the results follow. The list includes weakly bound sequences.
# Target: MaxL homodimer (UniProt P61244)
# Test: universal protein-binding microarray (PBM)
# Conditions: PBS-based mixture, 10 nM His-tagged protein dimer, 2% milk, 200 ng/uL BSA, 50 ng/uL salmon testes DNA, 0.02% TX-100; detection with Alexa 488 anti-His …; high values mean tight binding; most listed sequences are background and not binding sites; double strand, one strand shown
# Chain of UniProt P61244 (P61244 whole entry): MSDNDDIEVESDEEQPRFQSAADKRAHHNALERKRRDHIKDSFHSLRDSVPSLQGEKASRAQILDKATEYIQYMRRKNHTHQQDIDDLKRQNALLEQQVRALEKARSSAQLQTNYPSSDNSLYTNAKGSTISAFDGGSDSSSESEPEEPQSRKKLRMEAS
row,Sequence,binding signal (normalized occupancy)
1,ATCTGTCG,0.0799
2,CGGTAGCC,0.0689
3,TTATTGAA,0.0832
4,CGTAGTTA,0.0726
5,CAAGGGTA,0.0758
6,TACAAACA,0.0741
7,GTGTGATA,0.0856
8,CCAGGTCG,0.0731
9,AGACTCTA,0.0706
10,CAGCAAGA,0.0751
11,CTTAAGCA,0.077
12,AGAGCTGA,0.0686
13,TACCTCTA,0.0744
14,CGAATCAG,0.0747
15,ATTGTTAA,0.0765
16,AGAAGTCC,0.0733
17,CACTAACG,0.0797
18,AGAGCCGG,0.0642
19,TGCAGAAA,0.0784
20,GGGTGATA,0.0823
21,ATCACTGC,0.0733
22,AGTATCCG,0.072
23,ATACACCG,0.0799
24,CGGGTTAG,0.0773
25,AAGTAAGC,0.0754

row,Sequence,binding signal (normalized occupancy)
1,AACGCAGA,0.0731
2,CGAACTCC,0.076
3,CTACGAGA,0.0744
4,AGCTTGTC,0.0735
5,AGCCAGCC,0.0664
6,GGATCGGA,0.0725
7,AACTATTC,0.0763
8,ATCTGTGG,0.0811
9,CAGGGGAC,0.0712
10,GTAACCAA,0.0733
11,AACCTACT,0.074
12,GTTTAAAC,0.0701
13,ACCTTACA,0.0736
14,ATTTTTAA,0.0726
15,CCTCCGCC,0.07
16,CAGCCTGC,0.0703
17,ACGGGCAC,0.0709
18,CGCTCTCA,0.0761
19,CTGGTCTA,0.0727
20,CCATCTAA,0.0754
21,CTATCCGA,0.0775
22,ATCTGTAC,0.0797
23,CACAAACC,0.0835
24,AGTGATGG,0.0766
25,TCTTGCCA,0.071

row,Sequence,binding signal (normalized occupancy)
1,TTCACCAA,0.0806
2,ATAGTACG,0.0789
3,CTAGCCAC,0.0792
4,CGTTGTGA,0.0761
5,CTGCGAAC,0.0721
6,CCTGAGCG,0.0705
7,TGCATGCA,0.1
8,AGTGCATC,0.0772
9,ACGTCAGG,0.0736
10,ACCGCCTA,0.0644
11,AGGTGGTA,0.0821
12,CGCCTAGC,0.0653
13,AATTATGA,0.0791
14,AATCCCCC,0.0813
15,ATCGTTTA,0.0777
16,TCATCTCA,0.0823
17,CATAAGGG,0.0783
18,GGTCAGAA,0.0719
19,ACGGGCCT,0.0636
20,AGCATAGA,0.0763
21,CCATGTCG,0.0843
22,AATAGATC,0.0772
23,CCAGCAGC,0.075
24,ATCATTTC,0.0749
25,CATTTATC,0.0812

row,Sequence,binding signal (normalized occupancy)
1,CTGAACAC,0.0755
2,GGACAGAA,0.0703
3,AGGGACAA,0.0727
4,ATGCCGTC,0.0837
5,GGTTCGGA,0.0693
6,AAACGTTG,0.0765
7,CACCGTCC,0.0768
8,CTGTTACC,0.0806
9,ACCTGCTG,0.0779
10,GCAGATAC,0.0761
11,CCTACATA,0.0791
12,AATTGCGC,0.0728
13,ACGGAGCG,0.067
14,ACTAGCGA,0.0716
15,AGCTTGGA,0.0672
16,GTCAGCTA,0.0744
17,GCCTGCAA,0.0704
18,CTACAGGC,0.072
19,GAGAGTCA,0.0795
20,ACGAAACC,0.0733
21,ACAATCTC,0.0769
22,ACCCAGCT,0.0699
23,CCACTCAG,0.0756
24,CTGTGCGA,0.0726
25,GGTATGTA,0.0857

row,Sequence,binding signal (normalized occupancy)
1,GCAACGAA,0.0715
2,TAGACAGA,0.0717
3,AGAGAGAT,0.0736
4,AACTCTCG,0.0746
5,ACGCATAT,0.0946
6,CATGAACG,0.0803
7,CGTCGTGA,0.0754
8,GACTATAA,0.0784
9,CCTCCCAG,0.0751
10,CGGGTGAC,0.0779
11,AGCCCGCA,0.0756
12,ATATATTA,0.0867
13,CCGCCTGC,0.0773
14,CGCGATAA,0.075
15,CTTAGCCA,0.0761
16,ATCTAACA,0.0854
17,CCGCTGAC,0.0713
18,ATGCACCG,0.0783
19,ATTTTTCA,0.0766
20,ATTCAGCC,0.0751
21,AGGACGGG,0.0771
22,TACCTCGA,0.0739
23,AGGCCGTG,0.0702
24,GATGTGAC,0.0817
25,GTAACAAA,0.0748

row,Sequence,binding signal (normalized occupancy)
1,CAGGACGC,0.0713
2,GTCCCAAC,0.0676
3,ACTTTATC,0.0731
4,AGTCGAAA,0.0728
5,AATTTGGC,0.069
6,GAGCATTA,0.0805
7,CGCCGGCC,0.0647
8,AGATGGTG,0.0816
9,CAGCGTAA,0.0706
10,AGCAGTAG,0.0685
11,AACCGGCA,0.0747
12,ATGGAAGC,0.0783
13,CAATGTCC,0.0766
14,ATAGACTA,0.0732
15,AAATTGCC,0.0721
16,AATAGTCC,0.0738
17,ATGCGGCC,0.0851
18,ACGGTGGG,0.0782
19,GCAGTTGA,0.0722
20,AATGTGTA,0.0864
21,GGAGTTAA,0.073
22,CCTAATGA,0.0764
23,CTACAGGA,0.0758
24,CTGTATCA,0.0799
25,GGTAATGA,0.0796

row,Sequence,binding signal (normalized occupancy)
1,ATAGCCCA,0.0748
2,CAAAAATA,0.0833
3,ACTAAGGG,0.0765
4,GCAAATGC,0.0773
5,GAAACCTC,0.0722
6,GGAAGAGA,0.0767
7,CGAATTAA,0.0717
8,AATTTTCC,0.068
9,ACGACCAA,0.0716
10,CCCCGTTC,0.0759
11,CTCCCAGC,0.0698
12,CAGATGCA,0.0876
13,CCCTTCAG,0.0749
14,ACGTGGCT,0.101
15,AGATGGGA,0.0801
16,CTCGCACC,0.0733
17,CTGCGTTC,0.0684
18,CATAATAC,0.087
19,CCTGCCAC,0.0775
20,CGTCAACG,0.0744
21,AGCACGCC,0.0846
22,TCGGCTAA,0.073
